Test results taken from patent US20230272055A1, “ANTI-MUTANT CALRETICULIN (CALR) ANTIBODIES AND USES THEREOF” (Incyte Corporation, priority 2021, published 2023).

Test system: phosphorylation of STAT5 in Ba/F3 cells expressing MPL and Type 1 mutCALR
Assay: Inhibition of pSTAT5 (MSD Phospho-STAT5a,b lysate kit)
Type: cell-based
Conditions: 2 hours incubation
Description: To test the ability of anti-mutCALR antibodies to inhibit phosphorylation of STAT5, Ba/F3 cells (DSMZ) expressing MPL and Type 1 mutCALR variants were generated by nucleofection (Amaxa Cell Line Nucleofection Kit V, Lonza, Basel, Switzerland) and cultured in RPMI 1640+10% FBS+selection antibiotics. Prior (24 hours) to pSTAT5 assessment, cells were cultured in selection-free media and then plated at 200,000 cells per well (96 well plate) in RPMI 1640, 10% FBS. Antibodies were added to the cells and incubated for 2 hours followed by cell lysing and quantification of pSTAT-5 levels by MSD (Phospho-STAT5a,b Whole Cell Lysate Kit, MSD, Kenilworth, N.J.). Anti-mutCALR antibodies inhibit phosphorylation of STAT5 in a dose-dependent manner (FIG. 1).

IC50 (μg/mL), inhibition of pSTAT5: 0.06 μg/mL
B1: 14 (antibody)
heavy: EVQLVQSGAEVKKPGASVKVSCKVSGYTLTELSMQWVRQAPGKGLEWMGGFDPDDGETMYAEKFQGRLAVTEDTSTDTVYMELRSLTSEDTALYFCATSPGYDFFDYWGQGTLVTVSSASTKGPSVFPLAPSSKSTSGGTAALGCLVKDYFPEPVTVSWNSGALTSGVHTFPAVLQSSGLYSLSSVVTVPSSSLGTQTYICNVNHKPSNTKVDKRV[omitted - human IgG1 Fc]
light: SYVLTQPPSVSVAPGKTARITCGGYNIGSKFVHWYRQRPGQAPVLVVYDDRDRPSGIPERFSGSNSGNTATLTISRVEAGDEADYYCQVWDSSNDLLIFGGGTKLTVLGQPKAAPSVTLFPPSSEELQANKATLVCLISDFYPGAVTVAWKADSSPVKAGVETTTPSKQSNNKYAASSYLSLTPEQWKSHRSYSCQVTHEGSTVEKTVAPTECS
